The text below walks through data of the supplement of paper PMC10338343.

± gives the standard deviation. Only a part is listed here, and it is no random draw.
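Also: 1 nM active piRISC with 0.1 nM target library at 33 °C single turnover.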

One experiment deals with MIWI (PIWIL1) piRISC loaded with L1MC piRNA (30 nt). Description: pre-steady-state target cleavage rate (min^-1); MIWI and MILI are mouse PIWI proteins and EfPiwi is from a freshwater sponge; tags in brackets are library labels; higher = faster piRNA-guided slicing of the target. As to conditions: guide: L1MC piRNA 5'p-UAACUAAAUACUAUGCAAGCUGUAGGUCCU; auxiliary factor: 500 nM mouse GTSF1. The method, boiled down: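 Three pooled Cleave-'n-Seq trials supplied the data, with k3 capped at 0.0001 min^-1. In each, […] transcribed, DNA-blocked target RNA library and 1 nM active affinity-purified piRISC with one synthetic guide reacted in HEPES–potassium acetate buffer at 33 °C for 0–8 or 0–960 min, with or without 500 nM GTSF1 partner protein. Uncleaved targets were sequenced and normalised to depth and to weakly complementary targets. A burst-and-steady-state fit provided the pre-steady-state cleavage rate.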
With UCCUGGAUGAGCUAGCAUAGUAUUUAGUUA, the “pre-steady-state target cleavage rate” value was found to be 0.617 ± 0.05.

Turning to UCCUGGAUCAGCUUGCAUAGUAUUUUAGUUA, the “pre-steady-state target cleavage rate” value was 0.979 ± 0.05.

For UCCUCCAUGAGCUUGCAUAGUAUUUAGUUA, the “pre-steady-state target cleavage rate” value is 0.844 ± 0.03.

On to UCCUGGAUGUGCUUGCAUAGUAAUUAGUUA, for which the “pre-steady-state target cleavage rate” value came to 0.0816 ± 0.011.

For the sequence UCCACCUACAGCAUGCAUAGAAUUUAGUUA, the “pre-steady-state target cleavage rate” value is 0.322 ± 0.051.

With UCCUGGUACAGCUUGCAUAGUAUAUAGUUA, the “pre-steady-state target cleavage rate” value was 0.599 ± 0.07.

For the sequence UCCUCCUACAAGCUUGCAUAGUAUUUAGUUA, the “pre-steady-state target cleavage rate” value is 0.941 ± 0.033.

As for UCCUCCUACAGCUUGCUUAGUAUUUAGAUA, the “pre-steady-state target cleavage rate” value stood at 0.378 ± 0.038.

UCCACCUACUGCUUGCAUAGUAUUUAGUAA: the “pre-steady-state target cleavage rate” value turned out to be 0.29 ± 0.044.

In the case of UGGAGCUAGAGCUUGCAUAGUAUUUAGUUA, the “pre-steady-state target cleavage rate” value amounted to 0.707 ± 0.048.

As to UCCUGGAACAGCAUGCAUAGUAUUUACUUA, the “pre-steady-state target cleavage rate” value came to 0.446 ± 0.045.

For the sequence UCCUGCUACAGCUUGCUUAGUAUUUUGUUA, the “pre-steady-state target cleavage rate” value is 0.641 ± 0.043.

On to “UCGACCUACAGCUUGCAUAGUAUUUAGUUC [g2:g28:cont:t1C]”, for which the “pre-steady-state target cleavage rate” value came out at 1.22 ± 0.045.

For UCCAGCUACAGCUUGCAUAGUAUUUAGUAA, the “pre-steady-state target cleavage rate” value worked out at 0.462 ± 0.056.

For UCCACCUAAAGCUUGCAUAGUAUUUAGUUA, the “pre-steady-state target cleavage rate” value was found to be 0.289 ± 0.043.

For UGGACCAACAGCUAGCAUAGUAUUUAGUUA, the “pre-steady-state target cleavage rate” value worked out at 1.36 ± 0.059.

Take UCGAGCUACAGCUUCCAUAGUAUUUAGUUA: the “pre-steady-state target cleavage rate” value amounted to 0.0907 ± 0.021.

For UCCACCUACAGCUUGCAUAGUAUUUAUUUA, the “pre-steady-state target cleavage rate” value was determined as 0.395 ± 0.047.

On to UCCUGGAACAGCUUGCAAUCUAUUUAGUUA, for which the “pre-steady-state target cleavage rate” value worked out at 0.0462 ± 0.0065.

Regarding UGGACCUACAGCUAGCAAAGUAUUUAGUUA, the “pre-steady-state target cleavage rate” value is 1.16 ± 0.061.

In the case of UCCUCCUAGAGCUUGCAUAGUAUUUUGUUA, the “pre-steady-state target cleavage rate” value amounted to 0.894 ± 0.12.

With UCCUCCUACAGCUUGCAUAGUAUUUACUAA, the “pre-steady-state target cleavage rate” value was 0.266 ± 0.038.

Consider UCCACCUACACGUUGCAUAGUAUUUAGUUA, for which the “pre-steady-state target cleavage rate” value was found to be 0.801 ± 0.045.

With UCCUCCUACUGCAUGCAUAGUAUUUAGUUA, the “pre-steady-state target cleavage rate” value was determined as 1.14 ± 0.04.

On to UCCACCUACAGGUUGCUUAGUAUUUAGUUA, for which the “pre-steady-state target cleavage rate” value worked out at 0.979 ± 0.053.

As to UGGACCUACUGCUUGCAUAGUAUUUAGUUA, the “pre-steady-state target cleavage rate” value stood at 1.46 ± 0.073.

As for UGGACCUACAGCUUGCAUAGUAUUUUGUUA, the “pre-steady-state target cleavage rate” value turned out to be 0.958 ± 0.067.

Turning to UCGACCUACAGCUUGCAAAGUAUUUACUUA, the “pre-steady-state target cleavage rate” value was 0.507 ± 0.029.

Turning to UGGACCUACACCAUGCAUAGUAUUUAGUUA, the “pre-steady-state target cleavage rate” value is 0.769 ± 0.038.

Consider UCCUGGAUGAGCUUGCUAUGUAUUUAGUUA, for which the “pre-steady-state target cleavage rate” value is 0.00494 ± 0.0027.

On to UCCACCAACAGCUUGCAUAGUAUUUAGAAA, for which the “pre-steady-state target cleavage rate” value stood at 0.378 ± 0.045.

Take UCGACCUCCAGCUUGCAUAGUAUUUAGUUA: the “pre-steady-state target cleavage rate” value worked out at 1.17 ± 0.06.

On to UGGACCUACAGGCUUGCAUAGUAUUUAGUUA, for which the “pre-steady-state target cleavage rate” value was 1.22 ± 0.093.

As to UCCUGGAUCAGCUUGCAUUGUAUUUAGAUA, the “pre-steady-state target cleavage rate” value amounted to 0.218 ± 0.026.

In the case of UCCUGCUUGAGCUUGCAUAGUAUUUAGAAA, the “pre-steady-state target cleavage rate” value was determined as 0.278 ± 0.036.

As to UCCUGGUAGAGCAUGCAUAGUAUUUAGUUA, the “pre-steady-state target cleavage rate” value was 0.415 ± 0.032.

Turning to UCGACCUACAGCUUGCAUAGUAUUUUCUAA, the “pre-steady-state target cleavage rate” value worked out at 0.378 ± 0.044.

With UCCUGGAUGAGCCUGCAUAGUAUUUAGUUA, the “pre-steady-state target cleavage rate” value was determined as 0.712 ± 0.053.

For the sequence UCCUGGAACAGCUUGCAUUCUAUUUAGUUA, the “pre-steady-state target cleavage rate” value came out at 0.111 ± 0.015.

Regarding UCCUGGAUGAGCUUGCAUAGUAUUUAGUUUA, the “pre-steady-state target cleavage rate” value amounted to 0.737 ± 0.04.

The same experiment, now with this note: guide: L1MC piRNA 5'p-UAACUAAAUACUAUGCAAGCUGUAGGUCCU; auxiliary factor: none (no GTSF1).
Regarding UCCUGGAUGAGCUAGCAUAGUAUUUAGUUA, the “pre-steady-state target cleavage rate” value was found to be 0.0107 ± 0.0036.

With UCCUGGAUCAGCUUGCAUAGUAUUUUAGUUA, the “pre-steady-state target cleavage rate” value worked out at 0.0222 ± 0.0046.

UCCUCCAUGAGCUUGCAUAGUAUUUAGUUA: the “pre-steady-state target cleavage rate” value came out at 0.0503 ± 0.0084.

Regarding UCCUGGAUGUGCUUGCAUAGUAAUUAGUUA, the “pre-steady-state target cleavage rate” value is 0.0162 ± 0.0045.

Regarding UCCACCUACAGCAUGCAUAGAAUUUAGUUA, the “pre-steady-state target cleavage rate” value came to 0.00483 ± 0.0017.

As for UCCUGGUACAGCUUGCAUAGUAUAUAGUUA, the “pre-steady-state target cleavage rate” value worked out at 0.0466 ± 0.011.

In the case of UCCUCCUACAAGCUUGCAUAGUAUUUAGUUA, the “pre-steady-state target cleavage rate” value is 0.0524 ± 0.01.

For the sequence UCCUCCUACAGCUUGCUUAGUAUUUAGAUA, the “pre-steady-state target cleavage rate” value turned out to be 0.00865 ± 0.0025.

With UCCACCUACUGCUUGCAUAGUAUUUAGUAA, the “pre-steady-state target cleavage rate” value was 0.0159 ± 0.0021.

As for UGGAGCUAGAGCUUGCAUAGUAUUUAGUUA, the “pre-steady-state target cleavage rate” value was 0.0402 ± 0.0068.

With UCCUGGAACAGCAUGCAUAGUAUUUACUUA, the “pre-steady-state target cleavage rate” value was found to be 0.0279 ± 0.0094.

UCCUGCUACAGCUUGCUUAGUAUUUUGUUA: the “pre-steady-state target cleavage rate” value was 0.00925 ± 0.0021.

For the sequence “UCGACCUACAGCUUGCAUAGUAUUUAGUUC [g2:g28:cont:t1C]”, the “pre-steady-state target cleavage rate” value came out at 0.0714 ± 0.013.

Take UCCAGCUACAGCUUGCAUAGUAUUUAGUAA: the “pre-steady-state target cleavage rate” value came to 0.0182 ± 0.0027.

As to UCCACCUAAAGCUUGCAUAGUAUUUAGUUA, the “pre-steady-state target cleavage rate” value is 0.0181 ± 0.0028.

Take UGGACCAACAGCUAGCAUAGUAUUUAGUUA: the “pre-steady-state target cleavage rate” value is 0.0347 ± 0.0073.

With UCGAGCUACAGCUUCCAUAGUAUUUAGUUA, the “pre-steady-state target cleavage rate” value was 0.00301 ± 0.0022.

For UCCACCUACAGCUUGCAUAGUAUUUAUUUA, the “pre-steady-state target cleavage rate” value was determined as 0.028 ± 0.0061.

On to UCCUGGAACAGCUUGCAAUCUAUUUAGUUA, for which the “pre-steady-state target cleavage rate” value came to 0.00409 ± 0.0037.

UGGACCUACAGCUAGCAAAGUAUUUAGUUA: the “pre-steady-state target cleavage rate” value worked out at 0.00736 ± 0.0025.

For the sequence UCCUCCUAGAGCUUGCAUAGUAUUUUGUUA, the “pre-steady-state target cleavage rate” value amounted to 0.0203 ± 0.0034.

On to UCCUCCUACAGCUUGCAUAGUAUUUACUAA, for which the “pre-steady-state target cleavage rate” value was 0.00476 ± 0.0027.

UCCACCUACACGUUGCAUAGUAUUUAGUUA: the “pre-steady-state target cleavage rate” value turned out to be 0.0145 ± 0.0024.

With UCCUCCUACUGCAUGCAUAGUAUUUAGUUA, the “pre-steady-state target cleavage rate” value was 0.0233 ± 0.0043.

UCCACCUACAGGUUGCUUAGUAUUUAGUUA: the “pre-steady-state target cleavage rate” value came out at 0.0129 ± 0.003.

As to UGGACCUACUGCUUGCAUAGUAUUUAGUUA, the “pre-steady-state target cleavage rate” value turned out to be 0.0611 ± 0.0097.

Take UGGACCUACAGCUUGCAUAGUAUUUUGUUA: the “pre-steady-state target cleavage rate” value came out at 0.0448 ± 0.0072.

Turning to UCGACCUACAGCUUGCAAAGUAUUUACUUA, the “pre-steady-state target cleavage rate” value stood at 0.0198 ± 0.0042.

Take UGGACCUACACCAUGCAUAGUAUUUAGUUA: the “pre-steady-state target cleavage rate” value is 0.0179 ± 0.0032.

Regarding UCCUGGAUGAGCUUGCUAUGUAUUUAGUUA, the “pre-steady-state target cleavage rate” value worked out at 0.00308 ± 0.0029.

For the sequence UCCACCAACAGCUUGCAUAGUAUUUAGAAA, the “pre-steady-state target cleavage rate” value was 0.00708 ± 0.0027.

On to UCGACCUCCAGCUUGCAUAGUAUUUAGUUA, for which the “pre-steady-state target cleavage rate” value stood at 0.0635 ± 0.0099.

As for UGGACCUACAGGCUUGCAUAGUAUUUAGUUA, the “pre-steady-state target cleavage rate” value turned out to be 0.0754 ± 0.014.

Turning to UCCUGGAUCAGCUUGCAUUGUAUUUAGAUA, the “pre-steady-state target cleavage rate” value worked out at 0.0101 ± 0.0031.

UCCUGCUUGAGCUUGCAUAGUAUUUAGAAA: the “pre-steady-state target cleavage rate” value was 0.00476 ± 0.0032.

Regarding UCCUGGUAGAGCAUGCAUAGUAUUUAGUUA, the “pre-steady-state target cleavage rate” value came out at 0.00711 ± 0.0026.

As to UCGACCUACAGCUUGCAUAGUAUUUUCUAA, the “pre-steady-state target cleavage rate” value is 0.00495 ± 0.0035.

With UCCUGGAUGAGCCUGCAUAGUAUUUAGUUA, the “pre-steady-state target cleavage rate” value is 0.0388 ± 0.0088.

In the case of UCCUGGAACAGCUUGCAUUCUAUUUAGUUA, the “pre-steady-state target cleavage rate” value turned out to be 0.00536 ± 0.0041.

On to UCCUGGAUGAGCUUGCAUAGUAUUUAGUUUA, for which the “pre-steady-state target cleavage rate” value came to 0.0524 ± 0.012.
